The full ranking holds about 81,000 sequences; the median of “one-hybrid fitness for binding parS DNA” is about -0.17, and the highest 2% start at about 0.51. The list shows a part of the results.
B1: Caulobacter ParB omega fusion; a variant is named by its letters at X, in order, B8GW30 (parent)
chain: MESVVVGEPGMSEGRRGLGRGLSALLGEVDAAPAQAPGEQLGGSREAPIEILQRNPDQPRRTFREEDLEDLSNSIREKGVLQPILVRPSPDTAGEYQIVAGERAWRAAQRAGLKTVPIMVRELDDLAVLEIGIIENVQRADLNVLEEALSYKVLMEKFERTQENIAQTIGKSXSHVANXMRLLXLPDEVQSYLVSGELTAXHARAIAAAADPVALAKQIIEGGLSVRETEALARKAPNLSAGKSKGGRPPRVKDTDTQALESDLSSVLGLDVSIDHRGSTGTLTITYATLEQLDDLCNRLTRGI

Variants of: B1
Experiment: one-hybrid fitness for binding parS DNA (scaled: cognate 1, non-cognate 0); higher = stronger binding
Conditions: with parS DNA site
Method in brief: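 Selection: bacterial one-hybrid in E. coli USO, HIS3 reporter with the site 19 bp from the promoter, 48 hours at 37°C on M9-minus-histidine plus 0.1 mM IPTG and 5 mM 3-AT. Libraries were Caulobacter ParB with four randomised specificity codons, sequenced on Illumina before and after selection. Fitness is the rescaled log change in variant-to-wild-type read ratio, anchored to the cognate and non-cognate sites.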

one-hybrid fitness for binding parS DNA, 0.256:
RYFF

one-hybrid fitness for binding parS DNA, 0.416:
RVNN

one-hybrid fitness for binding parS DNA, 0.868:
RHTT

one-hybrid fitness for binding parS DNA, 1.01:
RFYS

one-hybrid fitness for binding parS DNA, ≤ 0.2:
STHL
CLET
ALKL
DKTW
QKSL
CHKR
YEAH
HERA
FQNR
DMSY
WLLW
AFCS
ALNN
QING
WHNS
FTYT
WMKE
VGHL
LNFS
VNMG
PELN
AIMS
ESSV
FMTV
RHNH
IRHH
HEDG
CAGD
IWPL
LNLY
YCYC
GQFT
PSQI
KIRG
IWHR
TRHG
MQPT
LVPY
GYSR
ISND
NMKM
CRQV
PHVM
PYAA
HWCR
NVHH
PMLN
YTTD
SELV
SLGT
SSFA
NPYE
FYKS
SIYL
CIIR
ATLP
WPRW
VIKL
HYYS
SLCE
RDAD
FDHC
FNPA
PLLC
QAYM
NICA
TLRG
CFGT
LWQS
AHNT
RYWH
TNKE
MAAT
ADVT
AGTT
PLDY
LACC
DCHT
QCRP
AAQL
TMRM
YQFV
AYWW
QVES
DPIL
RKIW
CIVS
PKQT
WLTT
LPYS
FYCC
DLKT
HFNC
CKCR
VGVS
PCNM
KVLS
AVRW
MMPI
DALH
SNNY
REFL
ITRG
VDNT
TFGR
GEFS
QFME
PTID
IVWT
ISRL
VWRG
WAQC
TQVW
FTGT
HRLY
QGTF
KLES
QKSK
WCLC
GRDC
ANST
GFGC
GHTF
CAKM
TCNH
TDLT
QQKF
SEIT
KIGG
RVEK
IIHV
TWPD
AMCL
KQFG
HNRY
CGLL
YPES
PNRK
RDKY
TELY
GDPA
RKHR
TKFT
KWTR
SHVT
QMRG
INML
KDAG
TQNM
GGSK
KQFS
PLPA
RYNV
EKCT
PTCI
PGGN
GYKS
PAHN
ISNR
TIDD
RGGM
GHQD
PSHA
QTIF
IWMG
IVNR
RTCL
GRPV
TCKN
GVGP
HRIS
CPLG
SCAM
AWWS
QFLY
CKGR
YGFR
DAGE
QPNK
RRDK
LPPS
YRSR
FNDR
YVLM
VQNT
VMRE
GVPK
CYSP
EHQF
IYQV
TTFV
PPPI
MVKT
ISIH
LILT
GRSC
AHIR
DNTM
KNWT
KKIS
SATN
MVNT
HDED
NSQY
GESA
EPVS
SPDC
GAPL
VRHN
FDQE
LQVV
EQLY
KKCS
GSIG
CPVG
HNES
TMAT
PLDE
GTDR
CAKF
VETL
NNMF
IHPQ
TISS
HIKL
QTMK
HLCL
CPKM
ADQR
QRMR
GGPY
PSAC
VWDG
CVSR
LAMM
LAAT
PWAT
QHDS
NLPN
SWPP
SYNE
MVIC
REVY
MQGF
VSIV
LNST
IVLN
DGRT
SSYE
TYGT
RFKL
LQTG
HPER
IDSL
KWSM
AHTM
HLPT
PWLA
GRSW
EPSG
RGYM
RSLP
QAKF
CHAH
HYEV
AVSA
ERKP
EKEV
RNVD
HIHL
HSKR
GVSL
VKLC
VTGG
ALRA
NWTA
CNTW
NRWT
MRKP
NQFT
NAKL
AVGN
YRTD
PTWD
PLVP
LLEG
TCAR
NLHG
HILE
RHWH
LWLM
HTSY
MSLC
HTKY

one-hybrid fitness for binding parS DNA, 0.289:
RCAF

one-hybrid fitness for binding parS DNA, 0.461:
RIHY

one-hybrid fitness for binding parS DNA, 1:
RMFG

one-hybrid fitness for binding parS DNA, 0.312:
NTWH

one-hybrid fitness for binding parS DNA, 0.912:
RYQS

one-hybrid fitness for binding parS DNA, 0.253:
RTLW

one-hybrid fitness for binding parS DNA, 0.317:
DHHQ

one-hybrid fitness for binding parS DNA, 0.255:
MCMV

Source: a collection of fitness landscapes (doi:10.1016/j.celrep.2020.107928)
